Measurements reported in the RNAGym collection of RNA variant scans (doi:10.1093/nar/gkz1192).
The source gives no read counts; variants with many changes may rest on few reads.

B1: CPEB3 Ribozyme (parent)
chain: UAACAGGGGGCCACAGCAGAAGCGUUCACGUCGCAGCCCCUGUCAGAUUCUGGUGAAUCUGCGAAUUCUGCUGUAUAUCUC

Variants of: B1
Test: self-cleavage, relative activity (ratio to wild type); higher = more cleavage; in vitro, sequencing
Method in brief: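 For each CPEB3 ribozyme variant, relative activity is its cleaved/total read fraction divided by the unmutated ribozyme's. Barcoded error-prone PCR libraries were transcribed by T7 RNA polymerase (5 hours, 37°C) and held in DNase I for 15 min before an EDTA stop, with cleavage occurring throughout. Template-switching reverse transcription and Illumina sequencing were used to read the RNAs. A 5-read minimum applied, and results are the mean of three batches.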

Variant	self-cleavage
UAACAGGGGGCCACAGCAGAGGCGUUCACGUCGCAGCCCCUGUCAGAUUCUGGUGCAUCUGCGAAUUCUGCUGUAUGGCUC [A21G A56C A77G U78G]	0.31
UAACAGGGGGCCACAGCAGAGGCGUUCACGUCGCAGCCCCUGUCAGAUUCUGGUGGAUCUGCGAAAUCUGCUGUAUAUCUC [A21G A56G U66A]	0.14
UAACAGGGGGCCACAGCAGAGGCGUUCACGUCGCAGCCCCUGUCAGAUUCUGGUGUAUCCGCGAAUCCUGCUGUAUAUCUC [A21G A56U U60C U67C]	0.12
UAACAGGGGGCCACAGCAGAGGCGUUCACGUCGCAGCCCCUGUCAGAUUCUGGUGUAUCUGCGAAUGCCGCUGUAUGUCUC [A21G A56U U67G U69C A77G]	0.06
UAACAGGGGGCCACAGCAGAGGCGUUCACGUCGCAGCCCCUGUCAGAUUCUGGUGAUUCUGCGAAUCCUGCUGUGUAUCUC [A21G A57U U67C A75G]	0.19
UAACAGGGGGCCACAGCAGAGGCGUUCACGUCGCAGCCCCUGUCAGAUUCUGGUGAAUCUGCGGAUUCUGCUGUAUAUCCC [A21G A64G U80C]	0.52
UAACAGGGGGCCACAGCAGAGGCGUUCACGUCGCAGCCCCUGUCAGAUUCUGGUGAAUCUGCGUAUUCGGCUGUAUAUCUC [A21G A64U U69G]	0.33
UAACAGGGGGCCACAGCAGAGGAGUUCACGUCGCAGCCCCUGUCGGACUCUGGUGAAUCUGCGAAUUCUGCUGUAUAUCUC [A21G C23A A45G U48C]	0.41
UAACAGGGGGCCACAGCAGAGGAGUCCACGUCGCAGCCCCUGUCAGAUUCUGGUGAAUCUGCGAAUUCUGCUGUAUAUCUC [A21G C23A U26C]	0.07
UAACAGGGGGCCACAGCAGAGGAGUUCACGCCGCAGCCCCAGUCAGAUUCUGGUGAAUCUGCGGAUUCUCCUGUAUAUCUC [A21G C23A U31C U41A A64G G70C]	0.05
UAACAGGGGGCCACAGCAGAGGUGUUCACGUCGCAGCCCCUGUCAGAUUAUGGUGAAUCUGCGAAUUCUGCUGUGUACCUC [A21G C23U C50A A75G U78C]	0.15
UAACAGGGGGCCACAGCAGAGGUGCUCACGUCGCAGCCCCUGUCAGAUUCUGGUGAAUCUGCGUAUUCUGCUGUAUAUCUC [A21G C23U U25C A64U]	0.39
UAACAGGGGGCCACAGCAGAGGCGUUAACGUCACAGCCCCUGUCAGAUCCUGGUGAAUCUGCGAAUUCUGCUGUAUAUCUC [A21G C27A G33A U49C]	0.17
UAACAGGGGGCCACAGCAGAGGCGUUAACGUCGCAGCCCCUGUCAGAUCCUGGUGAAUCUGCGAAUUCCGCUGUACAUCUC [A21G C27A U49C U69C U76C]	0.12
UAACAGGGGGCCACAGCAGAGGCGUUAACGUCGCAGCCCCUGUCAGAUUCAGGUGAAUCCGCGAAUUCUGUUGUAUAUCUC [A21G C27A U51A U60C C71U]	0.04
UAACAGGGGGCCACAGCAGAGGCGUUGACGUCGCAGCCCCUGUCAGAUUCUGGUGAAUCUGCGAAUUCUGCAGUGUAUCUC [A21G C27G U72A A75G]	0.12
UAACAGGGGGCCACAGCAGAGGCGUUUACGUCGCAGCCCCUGUCAGGUUCUGGUGAGUCUGCGAAUUCUGCUGUAUAUCUC [A21G C27U A47G A57G]	0.07

Variant	self-cleavage
UAACAGGGGGCCACAGCAGAGGCGUUUACGUCGCAGCCCCUGUCAGAUUCUGGUGAAUCUGCGAGUUCUGCUGUAUAUCUC [A21G C27U A65G]	0.1
UAACAGGGGGCCACAGCAGAGGCGUUCAAGUCGCAGCCCCUGUCAGAUCCUGGUGAAUCUGCGAAUUCUGCUGUAUAUCCU [A21G C29A U49C U80C C81U]	0.1
UAACAGGGGGCCACAGCAGAGGCGUUCAUGUCGCAGCGCCUGUCAGACUCUGGUGAAUCCGCGAAUUCUGCUGUAUAUCUC [A21G C29U C38G U48C U60C]	0.08
UAACAGGGGGCCACAGCAGAGGCGUUCAUGUCGCAGCUCCUGUCUGAUUCUGGUGAAUCUGCGAAUUCUGCUGUAUAUCUC [A21G C29U C38U A45U]	0.16
UAACAGGGGGCCACAGCAGAGGCGUUCAUGUCGCAGCCCCUGUCAGAUUCUGGUUAAUCUGCGAAUUCUGCCGUAUAUCUC [A21G C29U G55U U72C]	0.32
UAACAGGGGGCCACAGCAGAGGCGUUCAUGUCGCAGCCCCAGUCAGAUUCUGGUGAAUCUGCGAAUUCUGCUGUAUAUCUC [A21G C29U U41A]	0.2
UAACAGGGGGCCACAGCAGAGGCGUUCACGUGGCAGUGCCUGUCAGAUUCUGGUGAAUCUGCGAAUUCUGCUGUGUAUCCC [A21G C32G C37U C38G A75G U80C]	0.03
UAACAGGGGGCCACAGCAGAGGCGUUCACGUUGCAGCCCCUGUCAGAUUCUGAUGAAUCUGCGAAUACUGCUGUAUAUCUC [A21G C32U G53A U67A]	0.07
UAACAGGGGGCCACAGCAGAGGCGUUCACGUUGCAGCCCCUGACAGAUUCUGGCGGGUCUGCGAAUCCUGCUGUAUAUCUC [A21G C32U U43A U54C A56G A57G U67C]	0
UAACAGGGGGCCACAGCAGAGGCGUUCACGUCGAAGCCCCUGUCAGAUUCUGGUGAAUCUGCGAAUUCUGCAGUAUAUCGC [A21G C34A U72A U80G]	0.34
UAACAGGGGGCCACAGCAGAGGCGUUCACGUCGGAGCCCCUGUCAGAUUCUGGUGAAUCUGCGAAUUCUGCUGUAUAUCCC [A21G C34G U80C]	0.15
UAACAGGGGGCCACAGCAGAGGCGUUCACGUCGUAGCCCCUGUCAGGUUCUGGUGAAUCUGCGAAUUCUGCUGUAUAUCUC [A21G C34U A47G]	0.24
UAACAGGGGGCCACAGCAGAGGCGUUCACGUCGCAGGCCCUGUAUGAUUCUGGUGAACCUGCGAACUCUGCGGUAUAUCUC [A21G C37G C44A A45U U58C U66C U72G]	0.04
UAACAGGGGGCCACAGCAGAGGCGUUCACGUCGCAGGCCCUGUCAGAUUCUGGUGAAUCUGCGAAUUCUGCUGUAGACCUC [A21G C37G U76G U78C]	0.12
UAACAGGGGGCCACAGCAGAGGCGUUCACGUCGCAGUCCAUGUCAGAUUCUGGUGAAUCUGCGAAUUCUGCUGUAUAUCUC [A21G C37U C40A]	0.08
UAACAGGGGGCCACAGCAGAGGCGUUCACGUCGCAGUCCCUGUCAGACUCUGGUGAAUCUGCGAAUUCUCCUGUAUAUCUC [A21G C37U U48C G70C]	0.07
UAACAGGGGGCCACAGCAGAGGCGUUCACGUCGCAGCACCUGUCAGAUUCUGGUGAAUCUGCGAAUUCCGCUGUAUAUCUC [A21G C38A U69C]	0.1
